Among all 39,000 compounds or so, about 220 (0.56%) showed activity. This is one part of the list.
Tested on: Escherichia coli K-12 BW25113
Assay: relative growth (OD600 normalised to plate interquartile mean) (fraction); higher = less growth inhibition, active = 0.2 or less
Settings: 50 µM; LB; incubation time: overnight (16-24 h)
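Further: static incubation at 37 °C against the wild-type strain, values averaged over two biological replicates.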

Row | SMILES | relative growth
1 | C[C@H]1CN([C@@H](C)CO)C(=O)c2cc(NS(=O)(=O)c3cn(C)cn3)ccc2O[C@H]1CN(C)S(C)(=O)=O | inactive: 1.02
2 | C[C@H](CO)N1C[C@H](C)[C@@H](CN(C)C(=O)c2ccc3c(c2)OCO3)Oc2ncc(C#Cc3ccccc3F)cc2C1=O | inactive: 1.02
3 | COc1ccc(NC(=O)Nc2cccc3c2O[C@H](CN(C)Cc2ccc(C(=O)Nc4ccccc4N)cc2)[C@@H](C)CN([C@@H](C)CO)C3=O)cc1 | inactive: 1.04
4 | O=C(C[C@@H]1CC[C@H]2[C@@H](COC[C@@H](O)CN2S(=O)(=O)c2ccc(Cl)cc2)O1)NCCN1CCCC1 | inactive: 0.995
5 | C[C@@H]1CN([C@H](C)CO)C(=O)c2cc(NC(=O)c3ccncc3)ccc2O[C@@H](C)CCCCO[C@H]1CN(C)C(=O)Nc1ccc(F)cc1 | inactive: 1
6 | C[C@@H]1CN([C@@H](C)CO)C(=O)c2cc(NC(=O)c3ccncc3)ccc2O[C@H]1CN(C)Cc1ccc(Oc2ccccc2)cc1 | inactive: 0.994
7 | Cc1cc(C(=O)Nc2cccc3c2O[C@@H](CN(C)S(=O)(=O)c2ccc(F)cc2)[C@H](C)CN([C@@H](C)CO)C3=O)n(C)n1 | inactive: 1.01
8 | COC(=O)C1=CO[C@@H](O[C@H]2O[C@@H](CO)[C@@H](O)[C@@H](O)[C@@H]2O)[C@@H]2C(CO)=C[C@H](O)[C@H]12 | inactive: 1.02
9 | C[C@@H]1CCCCO[C@H](CN(C)S(=O)(=O)c2ccc(Cl)cc2)[C@@H](C)CN([C@H](C)CO)C(=O)c2cc(NC(=O)Nc3ccc(F)cc3)ccc2O1 | inactive: 1
10 | C[C@@H]1CN([C@@H](C)CO)S(=O)(=O)c2ccc(C#Cc3cccc(F)c3)cc2O[C@@H]1CN(C)C(=O)CN1CCOCC1 | inactive: 1.01
11 | Cc1noc(C)c1S(=O)(=O)N(C)C[C@H]1Oc2ccc(NS(=O)(=O)c3ccccc3)cc2C(=O)N([C@H](C)CO)C[C@H]1C | inactive: 1.01
12 | C[C@H]1CN([C@@H](C)CO)C(=O)Cc2cc(NC(=O)Cn3cnnn3)ccc2O[C@H]1CN(C)Cc1ccc(Oc2ccccc2)cc1 | inactive: 1.01
13 | C[C@@H]1CN([C@@H](C)CO)S(=O)(=O)c2ccc(C#Cc3cccc(F)c3)cc2O[C@@H]1CN(C)S(=O)(=O)c1ccccc1F | inactive: 1.06
14 | COc1ccc(CN(C)C[C@H]2Oc3c(NC(=O)CCCCCC(=O)Nc4ccccc4N)cccc3C(=O)N([C@H](C)CO)C[C@@H]2C)cc1 | inactive: 0.996
15 | C1N2CN3CN1CN(C2)C3 | inactive: 1.01
16 | CCn1ncc(Br)c1CN | inactive: 1.02
17 | C[C@@H]1CN([C@@H](C)CO)C(=O)Cc2cc(NC(=O)C3CCCCC3)ccc2O[C@@H]1CN(C)Cc1ccc(Oc2ccccc2)cc1 | inactive: 1.02
